Laboratory results from US20250145722A1, “ANTI-GAL3 ANTIBODIES AND METHODS OF USE” (TrueBinding, Inc., priority 2020, published 2025).
Changes are numbered by the printed parent chain.

What was measured:
[1] = target: Gal3-APP695 (APP isoform 695) (Homo sapiens, UniProt P17931); assay: Gal3-APP695 blocking; assay type: binding; details: as restated
GL261-LUC brain tumor = assay: PARP Western blot of brain tumor lysates; assay type: in vivo, Albino C57BL6 mice; details: PARP normalized to GAPDH; <1 indicates increased apoptotic activity; FIG. 34D-E
Method: GL261-LUC (5×10^5) were transplanted into the forebrain of the recipient animals (1 mm posterior of bregma, 2 mm lateral of midline and 3.5 mm deep, employing a stereotaxic frame (Stoelting, 51725D)). Implantation was confirmed using imaging of tumor luminescence. Briefly, luminescent images were obtained 10 min after injection with XenoLight D-Luciferin-K+ Salt Bioluminescent Substrate (Perkin Elmer, cat #122799, prepared according to manufacturer protocol) using an IVIS-Spectrum CT Imaging System (PerkinElmer). When bioluminescence flux detected in brains of injected animals reached 106 photons/second, the animals were injected i.v. with biotinylated anti-GAL3 antibodies (10 mg/kg). Four days later, the animals were sacrificed, and blood and brain tissue samples were collected.
To determine the biological activity of antibodies in brain tissue, the levels of antibody-induced apoptosis was analyzed in tumor samples. Brain tumor lysates were probed for the marker of cell death PARP on a Western blot. […] Finally, protein was detected by adding Supersignal West Pico Chemiluminescent substrate (Thermo-Fisher, 34579) to the membrane for 1 minute and imaged using Azure Biosystem c400. […]
Images were imported in ImageJ software and the signal intensity in each sample was quantified as a measure of protein quantity. […]

[2] = target: T1, Gal3-induced Aβ42 oligomers (Homo sapiens, UniProt P17931); assay: Disruption of Gal3-induced Aβ42 oligomers (dot blot, A11/6E10); assay type: biochemical; details: hGal3-65-250 isoform-induced Aβ-42 oligomers; within 1 hour; FIG. 63D
T1 construct: The anti-Gal3 antibodies were incubated with hGal3-65-250 isoform-induced Aβ-42 oligomers; made in house

[3] = Brain penetration of biotinylated anti-GAL3 antibodies in GL261-LUC glioma mice (ELISA of plasma and brain lysates); assay type: in vivo, Albino C57BL6 mice; details: biotinylated antibody 10 mg/kg i.v.; four days later; FIG. 34A-C
Text: To validate ability of anti-GAL3 antibodies to penetrate tumor tissue, 7-week old Albino C57BL6 mice (The Jackson laboratory) were orthotopically transplanted with murine glioma cells GL261 that stably express firefly luciferase gene (GL261-LUC).
To generate GL261-LUC cells, GL261 murine glioblastoma cell line (DSMZ, no. ACC 802) was transduced with pLL-CMV-Luciferase-T2A-Puro Lenti-Labeler™ Pre-packaged Virus (SBI, catalog No. LL150VA-1) employing transduction reagent (TransDux MAX Transduction reagent, SBI, catalog No. LV860A-1) according to the manufacturer's instructions. […]
To generate biotinylated anti-GAL3 antibodies, biotinylation was performed with (EZ-Link™ NHS-PEG4-Biotin, No-Weigh™ Format, ThermoFisher Scientific, A39259) using the manufacturer's protocol. […] The final concentrations of biotinylated samples were calculated based on their UV absorption at 280 nm.
GL261-LUC (5×10^5) were transplanted into the forebrain of the recipient animals (1 mm posterior of bregma, 2 mm lateral of midline and 3.5 mm deep, employing a stereotaxic frame (Stoelting, 51725D)). Implantation was confirmed using imaging of tumor luminescence. […] When bioluminescence flux detected in brains of injected animals reached 106 photons/second, the animals were injected i.v. with biotinylated anti-GAL3 antibodies (10 mg/kg). […]

T1 sequence (P17931 65-250): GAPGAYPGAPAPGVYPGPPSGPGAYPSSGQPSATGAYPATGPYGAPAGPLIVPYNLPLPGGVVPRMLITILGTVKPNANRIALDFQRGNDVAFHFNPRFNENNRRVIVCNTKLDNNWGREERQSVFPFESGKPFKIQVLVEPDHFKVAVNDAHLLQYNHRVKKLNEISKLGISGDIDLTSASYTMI
Chain of Gal3-APP695 (APP isoform 695) (P17931 2-250 limits assumed): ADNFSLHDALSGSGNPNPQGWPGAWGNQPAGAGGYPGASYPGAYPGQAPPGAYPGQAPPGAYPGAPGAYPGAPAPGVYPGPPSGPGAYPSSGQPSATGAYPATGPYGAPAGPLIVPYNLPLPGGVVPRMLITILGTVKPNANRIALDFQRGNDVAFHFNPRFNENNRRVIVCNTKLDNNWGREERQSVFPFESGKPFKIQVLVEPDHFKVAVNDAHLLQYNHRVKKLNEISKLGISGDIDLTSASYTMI

B1: 847C.11B1: anti-Gal3 antibody (antibody)
heavy: EVQLQQSGPELVKPGASVKISCKASGNTFTDHNMHWVKQSHGKSLEWIGYIYPYNGGTGYNQKFKSKATLTVDNSSSTVYMELRSLTSEDSAVYYCARGEYDYLAWFAYWGQGTLVTVSAASTKGPSVFPLAPCSRSTSESTAALGCLVKDYFPEPVTVSWNSGALTSGVHTFPAVLQSSGLYSLSSVVTVPSSSLGTKTYTCNVDHKPSNTKVDKRV[letters of human IgG4 Fc with S228P (EU numbers) omitted]
light: EIVLTQSPASLSVTTGEKVTIRCITSIDIDDDMNWYQQKPGEPPKLLISEGNTLRPGVPSRFSSSGYGTDFVFTIENTLSEDVADYYCLQSDNKPLTFGAGTKLELKRTVAAPSVFIFPPSDEQLKSGTASVVCLLNNFYPREAKVQWKVDNALQSGNSQESVTEQDSKDSTYSLSSTLTLSKADYEKHKVYACEVTHQGLSSPVTKSFNRGEC
blocking of Gal3-APP695 [1]: 87%

B2: 846C.1B2: anti-Gal3 antibody (antibody)
heavy: QIQLVQSGPELKKPGETVKISCKASGYTFTNYGMNWVKQAPGKGLKWMGWINTYTGEPSYADDFKGRFAFSLETSASTAYLQINNLKNEDMATYFCARWGGYAGDYYAMDFWGQGTSVTVSSASTKGPSVFPLAPCSRSTSESTAALGCLVKDYFPEPVTVSWNSGALTSGVHTFPAVLQSSGLYSLSSVVTVPSSSLGTKTYTCNVDHKPSNTKVDKRV[letters of human IgG4 Fc with S228P (EU numbers) omitted]
light: NIWLTQSPSSLAVSAGEMVTMTCKSSQSVLYSSNQKNYLAWYQQKPGQSPKLLIYWASTRESGVPDRFTGSGSGTDFSLTISSVQAEDLAVYYCHQYLSSLTFGAGTKLELKRTVAAPSVFIFPPSDEQLKSGTASVVCLLNNFYPREAKVQWKVDNALQSGNSQESVTEQDSKDSTYSLSSTLTLSKADYEKHKVYACEVTHQGLSSPVTKSFNRGEC
levels of PARP in tumor compared to control samples (GL261-LUC brain tumor): reduced levels of PARP
inhibition of Aβ-42 oligomer formation [2]: significant inhibition
activity in penetrating the blood brain barrier (BBB) [3]: higher penetrance than the rest of the tested clones

B3: 846.1H12: anti-Gal3 antibody (antibody)
heavy: B2 heavy with Y32F, M91I, F111Y
light: B2 light with W3M, L4M, E17Q, M18K, T22S, N34S, T69S, S78T, A86P
activity in penetrating the blood brain barrier (BBB) [3]: higher penetrance than the rest of the tested clones

B4: 846TC.14E4: anti-Gal3 antibody (antibody)
heavy: QVTLKESGPGILQPSQTLSLTCSFSGFSLSTSGMGVGWIRQPSGKGLEWLAHIWWDDDKYYNTALKSGLTISKDASKNQVFLKIASMDTADTATYYCARNLYDGSYGYYAMDYWGQGTSVTVSSASTKGPSVFPLAPCSRSTSESTAALGCLVKDYFPEPVTVSWNSGALTSGVHTFPAVLQSSGLYSLSSVVTVPSSSLGTKTYTCNVDHKPSNTKVDKRV[letters of human IgG4 Fc with S228P (EU numbers) omitted]
light: DIVMTQAAFSNPVTLGTSASISCRSSKSLLHTNGITFLYWYLQKPGQSPQPLIYQMSNLASGVPDRFSSSGSGTDFTLRISRVEAEDVGVYYCAQNLELPWTFGGGTKLEINRTVAAPSVFIFPPSDEQLKSGTASVVCLLNNFYPREAKVQWKVDNALQSGNSQESVTEQDSKDSTYSLSSTLTLSKADYEKHKVYACEVTHQGLSSPVTKSFNRGEC
inhibition of Aβ-42 oligomer formation [2]: significant inhibition
